Reference: the supplement of paper PMC3334620
Over roughly 33,000 sequences, “E-score (-0.5 to 0.5)” has its median near -0.035; the highest 2% begin near 0.34. This is one part of the list.

Target: T1, Mot3 (UniProt P54785)
T1 sequence: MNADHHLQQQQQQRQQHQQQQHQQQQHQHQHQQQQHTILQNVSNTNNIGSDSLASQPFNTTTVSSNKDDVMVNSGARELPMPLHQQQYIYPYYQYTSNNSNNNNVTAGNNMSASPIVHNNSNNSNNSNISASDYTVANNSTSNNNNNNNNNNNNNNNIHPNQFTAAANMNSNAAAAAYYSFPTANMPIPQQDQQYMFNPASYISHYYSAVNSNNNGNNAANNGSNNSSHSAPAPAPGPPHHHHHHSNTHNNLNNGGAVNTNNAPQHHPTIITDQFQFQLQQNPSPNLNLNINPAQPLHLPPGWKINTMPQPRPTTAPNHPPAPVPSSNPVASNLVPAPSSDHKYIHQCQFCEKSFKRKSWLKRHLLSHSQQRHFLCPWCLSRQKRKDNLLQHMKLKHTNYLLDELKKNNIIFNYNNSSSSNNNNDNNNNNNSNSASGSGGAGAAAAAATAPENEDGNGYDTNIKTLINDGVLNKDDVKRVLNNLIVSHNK
Assay: PBM E-score (8-mer binding enrichment) (E-score (-0.5 to 0.5)); higher = stronger / more preferred TF binding; most listed sequences are background and not binding sites
Conditions: protein concentration: 200 nM; construct: GST-full length
How it was run: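 Universal all-10-mer Agilent arrays, double-stranded by primer extension on fresh or once-stripped slides, were probed with about 100-200 nM GST-tagged yeast transcription factors made by PURExpress. Fluorescent anti-GST detected bound protein, and masliner normalised the scans. E-scores from the Universal PBM Analysis Suite were given to each ungapped eight-base word pooled with its reverse complement.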

Sequence	PBM E-score
AAGACGCT	-0.275
TATGAACA	0.192
GCGAGGCA	0.148
TTATCAAA	0.0771
GCGCTACC	-0.202
AAGAAGCA	0.028
ATGGAGAA	-0.0954
AGTCCGAC	-0.0975
AGAACGGA	-0.135
AGCGTTAC	-0.06
GGAAATAC	0.141
CTACAGTA	0.0852
CCTCGACA	0.0655
CTGTCAGA	-0.0883
GACAATAC	0.108
CTGCAATC	-0.0301
TAAGATGA	-0.00172
ATCCGTAG	-0.299
ATTAGAGG	-0.104
CCCAGGTC	-0.162
ATTCTTAC	0.148
CCTGCGCC	-0.0195
ACTCAAAA	-0.0489
CACCTCGA	-0.0714
AGATGGAT	-0.271

Sequence	PBM E-score
AGTCGTTC	0.0516
CATCTCTC	-0.127
AAAACTCG	0.206
TCACTGAA	-0.0937
ACGCAACG	0.211
CCCCAGAC	-0.352
CACCGTAA	0.0377
ATATAGAC	0.136
AAACCGGG	-0.212
CCAACGCC	-0.00629
ATTGCAAC	-0.102
TCATTCGA	-0.0243
TAGATAGA	0.0428
CAAGCTGG	-0.192
AGAAAGAA	-0.0361
GCTGCTGA	0.0538
AGGTGCGA	-0.188
AACCCCCG	-0.28
ATTTTTCC	0.0662
CTGGAAGA	-0.184
AACCCCAG	-0.0936
AACTGCGA	-0.314
AAAGGCCT	-0.0542
GCAGCGTA	-0.066
AAAGAACC	0.0629

Sequence	PBM E-score
CTGACCGA	-0.248
GCTCTCCA	-0.122
AACTTTCA	0.0939
AGGGATAG	-0.317
AGATCGGC	-0.214
CTAGTTCA	0.0656
GCGCGTAA	0.34
ATTTAGAC	0.0428
AGATGTAG	0.0828
CTTTTTGC	0.178
AGTCACAC	0.116
TACTGATA	0.042
CCGGGCTC	-0.278
ACGCCAAG	-0.0211
AATAAGCA	0.00176
GAACGAGC	0.103
AGGGTCGC	-0.165
CGATTCAC	-0.0992
AAGAAGCG	-0.048
AGTCTTGA	-0.109
AACTGGAC	-0.181
ATACGCAA	0.205
ACTGGGGA	-0.149
AGGACACG	0.071
AATTATCA	0.278

Sequence	PBM E-score
GAGTGACA	0.0201
GAGGACTA	-0.199
ATCTACCA	0.0595
ACCGCCTG	-0.018
CACGAACG	-0.00928
CGCTGGAG	-0.24
CTAACGTC	-0.00929
ATGCCTAA	0.278
GCGGGAAC	-0.21
GACTGCGA	-0.12
AACCTCCA	-0.259
GATGGTGA	-0.0599
CCCACCAC	-0.089
ACGGACCG	-0.224
GAACTTGA	0.095
GGTATTTA	-0.0421
AAAAGAAG	0.177
ATGCTTTC	0.133
CTAACCGC	-0.164
CCGGAGAG	-0.231
GATGATCC	-0.242
CTATAGAA	-0.0451
AGGTGGTG	-0.00552
ACTCGGGC	-0.0831
AGCACATA	-0.0205

Sequence	PBM E-score
ATGATGTA	0.226
GATGCACA	-0.142
GTTGTCGA	0.0121
ATTTCCCC	-0.115
ACCCGAGT	-0.161
ATAAGAAA	0.206
ACTAACCG	0.0779
TACCTACA	0.381
AACTTTCC	0.0113
CTTACGTA	0.211
AACGAAAA	0.0146
AACGAGAA	0.137
ATCGTAGA	0.0844
CTAACTCC	-0.141
TTATCGAA	-0.0233
TAGTCGGA	-0.134
GGCGTATA	0.0528
ACCGAACC	-0.266
ATGCTAGA	0.132
AAGTTATA	0.183
GCTAGCGA	-0.0626
ACGGAGAC	-0.0528
GATTAACA	0.338
ACAAAGCG	0.161
CGGCTCGA	-0.227

Sequence	PBM E-score
ATGGATGG	-0.226
CATCCTGG	-0.186
TCTAGTAA	0.163
ATTACCGG	-0.202
CGTAGGAA	0.351
ACAGCCGT	-0.24
ATTACTAC	0.171
TCGCGCCA	-0.114
AGACCTGG	-0.302
TCATTAGA	0.0474
AGTTTCGA	-0.164
CCATTGGC	-0.182
ATTAGCAG	-0.0234
CTTCGTGC	0.0535
AGGGCGTC	-0.112
CAACGGAC	-0.146
ATGGGCCC	-0.345
AAAGAATA	0.134
GTCCTCTA	-0.132
AGACTTCA	-0.0925
AATAAGAA	-0.0269
TCCCGACA	0.0266
ACGCCAGC	-0.221
TAGCCTCA	-0.188
CTCAATCC	0.0765

Sequence	PBM E-score
GGCGACTA	-0.176
CGCTTGCA	-0.178
CGCCGCAG	-0.206
CTCCCCTA	-0.29
ATTTTACA	0.336
CTTCAGCC	-0.21
ACGTAGCG	0.0835
ACGACAAA	0.0916
AAAACACC	0.0515
AGTCGATC	-0.35
TCCTAACA	0.214
AGCAGGCA	0.483
TACCACAA	0.23
CGATTCAG	-0.299
GCTGTCTA	-0.135
CCATTAGC	-0.205
AATTGGTA	0.113
CACTGAAG	0.0637
CGGGCCTC	-0.238
CGAGTTAA	0.143
CAAGGTCG	-0.0786
AAGAGTCT	-0.202
TCAATCAA	0.0592
AGGTTAGA	-0.215
AGTTCACA	0.132

Sequence	PBM E-score
CTTTTCCA	-0.109
AGTACTCG	0.0379
ACTCCGCT	0.0442
CGCCAGGC	0.0445
ATCCCCCC	-0.416
ACCGCAAC	0.0744
CGTATATC	0.0514
CTCAGGCC	-0.129
AAGTGAAG	-0.0194
AAACGGCT	-0.153
ACTATCAT	-0.00234
ATGGAGTG	-0.165
TAGGGGAA	-0.127
ACAGTCCC	-0.246
GCCATTAA	0.00098
CCGAATCA	-0.15
GCATGCAC	-0.0321
GGGTCGTA	-0.0745
GACACGAA	0.145
GAATCAAC	0.112
AGCTCTAG	-0.131
CATGGGTC	-0.173
TACGTGCA	0.093
CACATCAA	0.105
GACTCCCA	-0.163

Sequence	PBM E-score
GCGTTATA	0.177
AGAAGGAT	0.0925
CCTTGAAG	0.118
ACCCCATA	-0.0949
GAGATCTC	-0.359
GGCATTAC	0.305
TAGAGACA	-0.187
AGCAAATG	0.0139
ATCCTGTA	0.225
CGAATCTC	-0.0738
AGCCAAAC	-0.111
ATACTAAA	0.0222
ATCGTGAG	-0.15
CGCGTCAA	0.183
GGCTTTAA	-0.0639
CAATCGGG	-0.0322
CTGCGTCC	-0.17
ATATTTAC	0.285
GAGTCATA	-0.148
GGAACGGA	0.0873
AAAAGTGA	0.116
ATGGTGGC	-0.121
GGAATATA	0.0523
CTACAGAG	0.0842
CGCCTACA	0.224

Sequence	PBM E-score
AGTAACAA	0.178
GCACGCAA	0.0235
CGCCTAGC	-0.104
AGATGAGC	-0.118
TATGTAGA	0.333
CACGAGGA	0.00456
CCGAGCTA	-0.0595
CATGCAAG	0.0622
CGATGGAG	-0.172
CGTAATTA	0.322
CAGATCAC	-0.196
CGTACGAC	-0.0193
GGAGTCGA	-0.15
ATGGACGG	-0.0861
ACTGGGAT	0.0268
AGGCAAGG	0.483
CGGCAGGC	0.226
ACATATAC	0.258
GGTAGTTA	0.124
ACGCTGGG	-0.28
CGGCGGGC	-0.348
GTGATTCA	0.0658
ACGACGCC	-0.0205
ATGCGAGA	-0.149
CAAATACC	0.0599

Sequence	PBM E-score
CCGCTGCC	-0.0603
GGCTGCGA	-0.3
AGCTAAAG	-0.0941
CAGTCCGC	-0.175
CACCGTGG	-0.0929
ACTACGTG	0.0857
AAACCTTA	0.119
AAACTATA	0.0432
CATCAAAG	0.11
GGCTGGGA	-0.148
CATCCCGA	-0.123
GCCTCTCA	-0.12
GTATAAAA	0.189
GTAACTTA	0.202
GGTTTCAC	0.0117
TGTTAGAA	0.243
ACACCTAT	-0.00193
AGTTCTAT	-0.0879
ATGCGGAG	-0.131
ACAACATG	0.359
ACGAGTGA	0.113
CTGTTGGC	-0.17
TCGTTAGA	-0.236
CCGTGAGG	-0.203
CGATACTC	-0.259

Sequence	PBM E-score
AACGGCCG	-0.154
AGACGTAC	0.0104
AACCTCTC	-0.165
CCCAGGCA	0.461
ATCCGCCC	-0.357
GACACACA	0.173
ACGCCACG	-0.0165
CCGCCAGA	-0.197
CAGAAGGG	-0.15
GCTACCCC	-0.327
CGTACCAC	-0.0328
CAGCAGCC	-0.0453
ACGGTCAC	-0.224
AACACCTA	0.174
CACGCAAC	0.213
CCCATGCC	-0.107
TCTTAGCA	-0.0909
AGTAAGTG	-0.108
GGCGCGAA	-0.0685
GTGAACAC	0.121
ATATATTA	0.107
AGTGACCA	-0.224
AAAGGGGA	-0.194
TCCGAACA	-0.0772
ACACTGTG	0.0126

Sequence	PBM E-score
ACACGCAC	0.319
CGCGCGAC	-0.177
CGGCTGAC	-0.156
CTTCTCGC	-0.107
AGCTACAC	0.207
ATCATGAG	-0.0751
GATACCTA	0.137
ATTTCGCC	-0.0503
CGTTTCTA	0.0975
AGCGAACG	-0.253
CGGAGCCG	-0.343
CGGTTGCA	-0.132
ACGAATCG	-0.105
GATACAGA	-0.0581
CTTAGGAC	0.0401
CCCACGAA	-0.00562
TCCAGTAA	0.0226
AGTGTTTG	0.166
TACTAGCA	0.0991
GATAGGTA	0.27
GCTCGCGA	-0.0627
AATCCTGG	0.0465
ACATTTAG	0.138
TCGATCGA	-0.121
CGCCGTGC	0.119

Sequence	PBM E-score
GAAGGTGC	0.136
GTTCTCTA	0.0314
CGCTTAGA	-0.237
CATGCCAG	-0.178
CCAAGATA	-0.0806
AACTGGCC	-0.0837
ACGATGTC	-0.0106
AGCGTTAT	0.0914
GATATCTA	0.0319
CATCGCCA	-0.0692
AAACCCTT	0.0362
AAGTTCTC	-0.107
AGTAAGCG	-0.0636
TATGCTAA	0.0897
CCACCGTC	-0.236
AGACAGCC	-0.0996
CCCTTTAA	0.164
TATACGGA	-0.209
GCCTTACA	0.313
